Source: the antibiotic and cytotoxicity screens of Wong et al. (2023)
Some of the results follow.

Columns and labels:
HSkMC = human skeletal muscle cells; experiment: cytotoxicity call (relative viability < 0.9); details: 10 µM
HepG2 = experiment: cytotoxicity call (relative viability < 0.9); details: 10 µM
S. aureus RN4220 = experiment: growth inhibition call (relative growth <= 0.2); details: 50 µM

Cc1ccc(S(=O)(=O)Nc2ccc3c(c2)C(=O)N([C@@H](C)CO)C[C@@H](C)[C@H](CN(C)Cc2ccc4c(c2)OCO4)OCCCC[C@@H](C)O3)cc1
inactive: cytotoxicity call (HSkMC) | cytotoxicity call (HepG2) | growth inhibition call (S. aureus RN4220)

C[C@H]1CN([C@@H](C)CO)C(=O)Cc2cc(NS(=O)(=O)c3cn(C)cn3)ccc2O[C@@H]1CN(C)S(=O)(=O)c1ccccc1
inactive: cytotoxicity call (HSkMC) | cytotoxicity call (HepG2) | growth inhibition call (S. aureus RN4220)

Cc1ccc(S(=O)(=O)Nc2ccc3c(c2)C(=O)N([C@@H](C)CO)C[C@@H](C)[C@@H](CN(C)C(=O)NC2CCCCC2)OCCCC[C@H](C)O3)cc1
inactive: cytotoxicity call (HSkMC) | cytotoxicity call (HepG2) | growth inhibition call (S. aureus RN4220)

Cc1ccc(S(=O)(=O)N(C)C[C@@H]2OCCCC[C@H](C)Oc3ccc(NC(=O)Nc4c(C)noc4C)cc3C(=O)N([C@@H](C)CO)C[C@@H]2C)cc1
inactive: cytotoxicity call (HSkMC) | cytotoxicity call (HepG2) | growth inhibition call (S. aureus RN4220)

O=C(Cc1ccncc1)NCC[C@@H]1CC[C@@H](NC(=O)C2CCOCC2)[C@@H](CO)O1
inactive: cytotoxicity call (HSkMC) | cytotoxicity call (HepG2) | growth inhibition call (S. aureus RN4220)

Cc1noc(C)c1NC(=O)N(C)C[C@H]1Oc2ncc(C#CCC(C)C)cc2C(=O)N([C@H](C)CO)C[C@@H]1C
inactive: cytotoxicity call (HSkMC) | cytotoxicity call (HepG2) | growth inhibition call (S. aureus RN4220)

COc1ccc(S(=O)(=O)Nc2ccc3c(c2)CC(=O)N([C@H](C)CO)C[C@@H](C)[C@H](CN(C)S(=O)(=O)c2ccc(F)cc2)O3)cc1
inactive: cytotoxicity call (HSkMC) | cytotoxicity call (HepG2) | growth inhibition call (S. aureus RN4220)

CC(=O)OC1CC(C)(C)C(=C=C/C(C)=C/C=C/C(C)=C/C=C/C=C(C)/C=C/C=C(\C)C(=O)CC23OC2(C)CC(O)CC3(C)C)C(C)(O)C1 (configuration not stated)
inactive: cytotoxicity call (HSkMC) | cytotoxicity call (HepG2) | growth inhibition call (S. aureus RN4220)

C[C@H]1CN([C@@H](C)CO)S(=O)(=O)c2ccc(C#CC3(O)CCCC3)cc2O[C@@H]1CN(C)C(=O)c1cccnc1
inactive: cytotoxicity call (HSkMC) | cytotoxicity call (HepG2) | growth inhibition call (S. aureus RN4220)
